The target of assay [1] is endogenous HA-tagged PC-1 (Pkd1 HA/HA MEFs) (mouse (endogenous in MEFs)) (UniProt O08852). Description: co-IP; endogenous proteins in MEFs from Pkd1 HA/HA or Pkd1 Myc/Myc mice; immunoprecipitation of tagged endogenous PC-1, blot for NPHP1; Pkd1 +/+ cells as control.
In assay [2] the target is endogenous Myc-tagged PC-1 (Pkd1 Myc/Myc cells) (mouse (endogenous in MEFs)) (UniProt O08852). The assay is described as above.
Assay [3] has as its target T1, NPHP1-SH3 (15N-labelled SH3 domain of nephrocystin-1 for NMR and ITC) (human) (UniProt O15259).
T1 sequence: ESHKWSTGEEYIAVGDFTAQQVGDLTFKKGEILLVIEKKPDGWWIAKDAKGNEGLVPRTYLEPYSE
Description: NMR titration; 1H-15N HSQC of 15N NPHP1-SH3 (0.3 mM) with added peptide (0, 0.5, 1, 1.5, 2, 3, 4 equivalents for peptPP2); fast exchange; both purified.

Sequences of proteins named here, by UniProt entry; tags and fusion partners are left off. Residues count along the entry.
UniProt O08852, residues 24-4293: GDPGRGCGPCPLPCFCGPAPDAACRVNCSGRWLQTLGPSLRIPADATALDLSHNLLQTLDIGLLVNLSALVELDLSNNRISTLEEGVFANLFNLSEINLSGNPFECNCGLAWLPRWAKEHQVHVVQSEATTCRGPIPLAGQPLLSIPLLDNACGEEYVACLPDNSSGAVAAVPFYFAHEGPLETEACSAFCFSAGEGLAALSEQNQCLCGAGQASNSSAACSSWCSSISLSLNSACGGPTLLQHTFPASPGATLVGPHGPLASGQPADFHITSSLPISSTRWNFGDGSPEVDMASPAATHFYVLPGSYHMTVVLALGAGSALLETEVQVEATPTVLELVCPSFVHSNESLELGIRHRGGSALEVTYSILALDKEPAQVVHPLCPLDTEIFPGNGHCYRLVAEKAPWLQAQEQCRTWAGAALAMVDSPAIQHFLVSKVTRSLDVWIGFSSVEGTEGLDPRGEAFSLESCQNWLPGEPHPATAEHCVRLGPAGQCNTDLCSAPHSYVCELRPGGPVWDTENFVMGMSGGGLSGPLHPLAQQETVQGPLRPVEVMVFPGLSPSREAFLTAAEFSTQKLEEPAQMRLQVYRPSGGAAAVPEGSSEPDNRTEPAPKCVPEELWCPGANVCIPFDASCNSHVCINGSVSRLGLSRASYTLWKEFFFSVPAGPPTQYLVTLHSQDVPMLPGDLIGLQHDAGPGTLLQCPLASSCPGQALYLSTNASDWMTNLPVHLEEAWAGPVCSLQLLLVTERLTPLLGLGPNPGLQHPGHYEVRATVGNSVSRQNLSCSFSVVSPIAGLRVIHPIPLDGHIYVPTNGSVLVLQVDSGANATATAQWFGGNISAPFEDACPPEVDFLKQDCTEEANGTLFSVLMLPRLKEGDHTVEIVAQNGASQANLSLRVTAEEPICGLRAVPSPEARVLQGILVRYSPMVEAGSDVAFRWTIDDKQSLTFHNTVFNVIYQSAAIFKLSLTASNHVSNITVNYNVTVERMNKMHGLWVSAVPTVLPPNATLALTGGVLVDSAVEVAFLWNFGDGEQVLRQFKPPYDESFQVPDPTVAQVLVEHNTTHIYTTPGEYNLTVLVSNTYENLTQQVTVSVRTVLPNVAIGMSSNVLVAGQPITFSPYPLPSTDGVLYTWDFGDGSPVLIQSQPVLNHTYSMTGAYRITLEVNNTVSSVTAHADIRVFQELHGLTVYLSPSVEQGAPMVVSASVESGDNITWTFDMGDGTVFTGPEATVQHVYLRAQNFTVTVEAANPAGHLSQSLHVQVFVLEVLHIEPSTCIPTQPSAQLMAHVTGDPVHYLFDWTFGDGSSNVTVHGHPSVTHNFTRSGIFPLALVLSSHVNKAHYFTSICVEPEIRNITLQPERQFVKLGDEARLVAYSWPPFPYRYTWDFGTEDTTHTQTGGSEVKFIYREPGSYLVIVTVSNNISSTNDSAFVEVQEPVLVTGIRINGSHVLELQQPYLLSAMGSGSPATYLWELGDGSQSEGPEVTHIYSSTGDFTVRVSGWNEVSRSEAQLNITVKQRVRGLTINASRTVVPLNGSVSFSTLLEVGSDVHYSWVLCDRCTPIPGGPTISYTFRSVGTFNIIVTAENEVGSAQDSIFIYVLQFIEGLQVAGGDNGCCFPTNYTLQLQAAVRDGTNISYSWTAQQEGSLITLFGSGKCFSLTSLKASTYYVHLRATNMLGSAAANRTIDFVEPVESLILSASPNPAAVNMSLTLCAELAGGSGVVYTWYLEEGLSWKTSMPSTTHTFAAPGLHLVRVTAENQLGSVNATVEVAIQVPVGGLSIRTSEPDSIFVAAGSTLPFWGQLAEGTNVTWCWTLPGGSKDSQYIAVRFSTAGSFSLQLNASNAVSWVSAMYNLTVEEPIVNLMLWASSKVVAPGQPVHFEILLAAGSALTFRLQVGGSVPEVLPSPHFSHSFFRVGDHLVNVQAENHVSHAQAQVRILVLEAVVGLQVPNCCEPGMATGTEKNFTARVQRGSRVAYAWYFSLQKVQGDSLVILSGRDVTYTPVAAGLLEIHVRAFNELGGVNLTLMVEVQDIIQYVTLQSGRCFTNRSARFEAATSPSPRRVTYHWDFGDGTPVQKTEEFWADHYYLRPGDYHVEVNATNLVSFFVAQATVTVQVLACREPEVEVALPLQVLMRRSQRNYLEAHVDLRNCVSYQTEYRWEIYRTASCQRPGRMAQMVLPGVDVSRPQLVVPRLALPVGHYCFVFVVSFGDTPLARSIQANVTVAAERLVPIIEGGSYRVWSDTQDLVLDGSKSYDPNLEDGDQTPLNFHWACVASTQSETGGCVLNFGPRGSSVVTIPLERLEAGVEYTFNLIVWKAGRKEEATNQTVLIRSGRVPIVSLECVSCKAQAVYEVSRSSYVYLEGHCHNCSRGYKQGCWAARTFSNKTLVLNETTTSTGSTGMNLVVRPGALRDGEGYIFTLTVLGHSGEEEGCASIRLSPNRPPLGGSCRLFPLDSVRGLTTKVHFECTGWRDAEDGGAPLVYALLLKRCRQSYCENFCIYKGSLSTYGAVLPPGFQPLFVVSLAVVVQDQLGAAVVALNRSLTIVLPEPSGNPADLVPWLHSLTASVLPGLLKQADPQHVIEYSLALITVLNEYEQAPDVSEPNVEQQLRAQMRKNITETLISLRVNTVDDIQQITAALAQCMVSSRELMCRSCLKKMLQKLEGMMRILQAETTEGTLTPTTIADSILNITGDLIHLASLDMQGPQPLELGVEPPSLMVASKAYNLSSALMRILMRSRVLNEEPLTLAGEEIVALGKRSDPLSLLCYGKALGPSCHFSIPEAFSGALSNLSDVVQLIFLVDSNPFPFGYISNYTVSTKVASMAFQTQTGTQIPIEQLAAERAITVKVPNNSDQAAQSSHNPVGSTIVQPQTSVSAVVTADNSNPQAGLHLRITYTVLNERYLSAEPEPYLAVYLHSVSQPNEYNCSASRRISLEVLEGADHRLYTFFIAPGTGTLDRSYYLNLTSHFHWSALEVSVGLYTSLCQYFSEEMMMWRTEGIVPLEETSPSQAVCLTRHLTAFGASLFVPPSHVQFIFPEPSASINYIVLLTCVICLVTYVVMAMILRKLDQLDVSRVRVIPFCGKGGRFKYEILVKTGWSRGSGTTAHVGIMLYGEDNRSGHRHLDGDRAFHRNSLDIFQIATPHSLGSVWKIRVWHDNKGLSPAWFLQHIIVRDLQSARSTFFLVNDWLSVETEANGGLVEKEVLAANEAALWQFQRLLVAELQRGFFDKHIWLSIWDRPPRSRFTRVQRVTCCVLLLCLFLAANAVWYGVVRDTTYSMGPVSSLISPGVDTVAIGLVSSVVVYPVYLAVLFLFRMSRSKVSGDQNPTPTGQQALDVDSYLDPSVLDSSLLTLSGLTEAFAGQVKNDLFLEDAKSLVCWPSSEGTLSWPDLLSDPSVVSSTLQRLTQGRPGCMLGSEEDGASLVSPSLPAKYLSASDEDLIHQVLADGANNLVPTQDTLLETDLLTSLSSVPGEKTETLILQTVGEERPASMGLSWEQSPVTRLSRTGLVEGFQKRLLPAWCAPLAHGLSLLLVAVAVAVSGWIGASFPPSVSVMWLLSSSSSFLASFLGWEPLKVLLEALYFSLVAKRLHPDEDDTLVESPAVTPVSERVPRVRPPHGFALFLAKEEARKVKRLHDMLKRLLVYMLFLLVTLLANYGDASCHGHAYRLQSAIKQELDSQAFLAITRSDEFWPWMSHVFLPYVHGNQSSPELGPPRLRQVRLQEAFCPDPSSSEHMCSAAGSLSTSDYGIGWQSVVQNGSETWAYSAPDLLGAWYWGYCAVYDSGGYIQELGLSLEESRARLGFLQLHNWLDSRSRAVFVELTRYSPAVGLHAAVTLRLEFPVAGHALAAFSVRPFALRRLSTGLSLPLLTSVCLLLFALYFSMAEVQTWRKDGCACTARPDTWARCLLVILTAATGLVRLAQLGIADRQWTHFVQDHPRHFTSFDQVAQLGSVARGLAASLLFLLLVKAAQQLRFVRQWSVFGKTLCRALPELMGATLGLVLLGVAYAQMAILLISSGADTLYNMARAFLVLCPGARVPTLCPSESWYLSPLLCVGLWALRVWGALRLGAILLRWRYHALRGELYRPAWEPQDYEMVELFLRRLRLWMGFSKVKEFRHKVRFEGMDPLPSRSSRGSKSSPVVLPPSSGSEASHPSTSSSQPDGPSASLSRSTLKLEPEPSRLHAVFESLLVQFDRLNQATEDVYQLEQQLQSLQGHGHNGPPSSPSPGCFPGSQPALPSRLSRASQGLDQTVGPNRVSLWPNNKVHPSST

The target of assay [4] is T1, NPHP1-SH3 (15N-labelled SH3 domain of nephrocystin-1 for NMR and ITC) (human). Description: ITC; peptPP2 with NPHP1-SH3; integrated data corrected for heat of dilution, fit to a single site binding model; both purified.
Assay [5] deals with T2, NPHP1-SH3-P203L (for NMR) (human) (UniProt O15259).
T2 sequence: T1 sequence with P57L
Description: NMR titration; 1H-15N HSQC of 15N NPHP1-SH3 (0.3 mM) with added peptide (0, 0.5, 1, 1.5, 2, 3, 4 equivalents for peptPP2); fast exchange; both purified.

Where a chain is given by its changes, count along the chain named. These are yes or no findings as the source states them, for the method shown. For some of these results: In cells and extracts the contact can be indirect. Some results given as binding are weak or reduced against the parent protein; the word gives no strength.

B1: endogenous NPHP1 (mouse embryonic fibroblasts) (protein, UniProt Q9QY53 1-687)
chain: MLARRPRDPLQALRRRGQELKLQVDSLVTESQLTGALEPSKRREIYQRCIQLKQAVDENKNTLQKLNKADEAAPVGNYEQRKEEEHSLLEKLACQLQELAVSISRKDALKVEAHSDKEEDDTTEDDEEETGGEEEESEGDGEGKQEQASPKQAETETVTYIALGDFAAQQTGDLTFKKGDVLHIIEKKPDGWWLAKDAEGVEGLIPRTYLEPYNKEDKLESSEGSEEGGEEDGEEDVEVVDETADGAQVKQRTDSHWSAVRKAISEQINTVDVLATMGAIPAGFRPSTLSQLLDEAGNQFRASYFLQPELTTSQLAFRDLTWDAKAGTIMSRPSRVSLILTLWSCKMIPLPGTSIQVLSRHIRLCLFDGSKVLSNIHTVRAVWQPKKPKTWTFSPQVTGILPCLLDGDCFIRSNSSTPDLGILFELGISYIRNSTGERGELSCGWVFLKLFDASGVPIPAKTYELFLNGGTPYEKGVEVDPSVSRRAQGSVFRQMISVRRQPQLLVKLRSLNRRSRAMLSLLPETLVGSMCSAHLLIFYRQILGDVLLRDRTNLQSADLISHPVLATFPLLLEQPDVMDALRSSWSEKESTLKRAEKRDKELLKAEFLLVYHDCVLPLLHSTLLPPFRWAEEETEAARWKAIADFLKQSRENEGSLKALLSPDGVHKPFDLSEQTFDFLGEIRKNSG
As for B1, the binding entry in assay [1] and in assay [2] was “binds” throughout.

B2: peptPL2 (peptide)
peptide: GLRPALLSRLARAS
modifications: N-terminus acetylated, C-terminus amidated
For the molecule B2, in assay [3], the binding entry is listed as “no binding”.

B3: peptPP2 (peptide)
peptide: GLRPALPSRLARAS
modifications: N-terminus acetylated, C-terminus amidated
In the case of B3, the figures for the binding entry in assay [4] and in assay [5] were “binds weakly” and “no binding”, respectively.

B4: peptPL1 (peptide)
peptide: RGSKVSPDVLPPS
modifications: N-terminus acetylated, C-terminus amidated
As for B4, the binding entry in assay [3] was “no binding”.

B5: peptPP1 (peptide)
peptide: RGSKVSPDVPPPS
modifications: N-terminus acetylated, C-terminus amidated
As for B5, in assay [3], the binding entry was “no binding”.

Source of the values: publication PMC2939065.
